Measurements: PubChem BioAssay AID588342 (National Center for Advancing Translational Sciences (NCATS), 2011)
Among all 360,000 compounds or so, about 25,000 (6.9%) were called active. Inconclusive results, whose numbers are uncertain, are shown with a selection of clear calls. Calls follow the shape of the dose curve; as a rule, active = well fitted inhibition curve with a large enough effect; inconclusive = small, poorly fitted or top-dose-only effect; inactive = flat fitted curve, though single readings scatter. Where the call is inconclusive, the potency comes from a doubtful curve fit.

Each compound was assayed against Luciferin 4-monooxygenase (Photinus pyralis) (UniProt P08659) (assay: qHTS profiling assay for firefly luciferase inhibitor/activator using purifed enzyme and Km concentrations of substrates (counterscreen for miR-21 project)). Conditions: purified FLuc, luminescence inhibition; series mostly up to 57.5 µM.
Method in brief: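 Purified P. pyralis luciferase (10nM final) with 10uM D-luciferin and 10uM ATP (Km levels) in 50mM Tris acetate pH 7.5, 10mM Mg acetate, 0.01% Tween-20, 0.05% BSA; qHTS 6-point titration, ~60 µM downward; luminescence read.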
Also: nearly all actives have a fitted effect of over 55% in size.
Potency is read from the fitted curve at half-maximal effect; tags tell the direction and shape of the fitted curve.

UniProt P08659, sequence (P08659 whole entry, looked up): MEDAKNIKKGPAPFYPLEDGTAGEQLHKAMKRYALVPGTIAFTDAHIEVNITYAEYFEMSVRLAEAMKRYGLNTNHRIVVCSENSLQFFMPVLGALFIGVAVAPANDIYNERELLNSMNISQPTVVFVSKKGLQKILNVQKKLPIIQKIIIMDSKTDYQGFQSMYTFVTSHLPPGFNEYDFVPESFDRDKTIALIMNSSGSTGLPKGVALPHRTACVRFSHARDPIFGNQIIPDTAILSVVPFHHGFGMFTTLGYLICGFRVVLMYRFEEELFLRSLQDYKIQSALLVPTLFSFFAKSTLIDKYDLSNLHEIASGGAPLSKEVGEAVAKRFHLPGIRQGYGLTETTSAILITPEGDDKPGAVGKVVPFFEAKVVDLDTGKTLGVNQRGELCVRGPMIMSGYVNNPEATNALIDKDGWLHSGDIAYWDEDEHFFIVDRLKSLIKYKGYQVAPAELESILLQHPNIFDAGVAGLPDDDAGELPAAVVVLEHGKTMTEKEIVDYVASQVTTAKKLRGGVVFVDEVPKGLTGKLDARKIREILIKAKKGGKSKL

Row | SMILES | Potency
1 | Cc1ccc(-n2ncc3c(NCCCc4ccccc4)ncnc32)cc1 | inconclusive: 26.9 µM [inhibitor, partial curve]
2 | Cc1nn(Cc2ccc(C(=O)Nc3ccccc3F)cc2)c(C)c1Cl | inconclusive: 33.8 µM [inhibitor, partial curve, poor fit]
3 | O=[N+]([O-])c1cc(/C=N/N2CCN(Cc3ccccc3)CC2)ccc1Cl | inconclusive: 37.9 µM [inhibitor, partial curve, poor fit]
4 | CCCCNC(=S)NC(=O)c1ccc([N+](=O)[O-])cc1 | inconclusive: 26.9 µM [inhibitor, partial curve, poor fit]
5 | COc1ccc(NC(=O)CSc2nc3nc(C)c(Cc4ccc(C)cc4)c(C)n3n2)cc1OC | inactive
6 | NNC(=O)c1cc(-c2ccc(O)cc2)nc2ccc(Br)cc12 | inconclusive: 37.9 µM [inhibitor, single point]
7 | Cc1ccc(CC(=O)Nc2nc3ccccc3s2)cc1 | active: 19 µM
8 | COc1cc2[nH]c(=O)n(Cc3ccc(C(=O)NCc4ccccc4)cc3)c(=O)c2cc1OC | inactive
9 | Cc1ccc(C)c(S(=O)(=O)Nc2nc3ccc(S(N)(=O)=O)cc3s2)c1 | inconclusive: 26.9 µM [inhibitor, partial curve]
10 | COc1ccc(Nc2c(-c3ccco3)nc3ccc(C)cn23)cc1 | inconclusive: 5.36 µM [inhibitor, partial curve, poor fit]
11 | CC(=O)OCc1cnc(C)c2oc(=O)c(C(=O)Nc3cccc(F)c3)cc12 | inactive
12 | CCOC(=O)c1ccc2nc(NC(=O)C(C)C)sc2c1 | active: 9.53 µM
13 | COc1ccccc1NC(=O)c1ccc2c(Cl)c3c(nc2c1)CCCC3 | active: 7.57 µM
14 | Cc1cc(C)cc(NC(=O)c2ccc(CSc3nnc(C)s3)cc2)c1 | active: 7.57 µM
15 | CNC(=O)c1ccc(NC(=O)Cc2ccc(S(=O)(=O)N3CCOCC3)s2)cc1 | inactive
16 | COc1ccc(/C=N/NC(=O)c2cc(-c3ccc4c(c3)OCO4)n[nH]2)cc1OC | inconclusive: 3.01 µM [inhibitor, partial curve, poor fit]
17 | Cc1ccc(C(=O)Nc2ncc([N+](=O)[O-])s2)cc1 | active: 0.12 µM
18 | COC(=O)/C(=C(O)\C=C\c1ccccc1[N+](=O)[O-])c1nc2ccccc2[nH]1 | inconclusive: 15.1 µM [inhibitor, partial curve]
19 | O=C(CCc1nc(-c2ccccc2)no1)N1CCCC1 | inconclusive: 37.9 µM [inhibitor, partial curve, poor fit]
20 | CCOc1ccc(NC(=O)N2CC=C(c3c[nH]c4ccccc34)CC2)cc1 | inactive
21 | COC(=O)Cc1c(C)nc2nc(-c3cccnc3)[nH]n2c1=O | inconclusive: 30.1 µM [inhibitor, single point]
22 | COc1ccc(NC(=O)c2ccc3ccccc3c2)cc1 | active: 0.849 µM
23 | COc1ccc(-c2ncc3ccccn23)cc1 | inconclusive: 30.1 µM [inhibitor, partial curve, poor fit]
24 | COc1ccccc1Nc1nc(-c2sc(NC(=O)c3ccco3)nc2C)cs1 | inconclusive: 21.3 µM [inhibitor, single point]
25 | CC(C)OCCCNC(=O)c1ccc(Br)cc1 | inconclusive: 26.9 µM [inhibitor, partial curve, poor fit]

Row | SMILES | Potency
26 | Cc1ccc(CNC(=O)c2ccc(N3CCC4(CC3)CC(c3cccc(Br)c3)=NO4)c(NC(=O)c3c(Cl)cccc3Cl)c2)cc1 | inactive
27 | CCSc1nc2sc3c(c2c(=O)n1CC)CC(C)(C)OC3 | inconclusive: 37.9 µM [inhibitor, partial curve, poor fit]
28 | COc1ccc(C(=O)NCCc2c[nH]c3ccc(OC)cc23)cc1 | inconclusive: 21.3 µM [inhibitor, partial curve, poor fit]
29 | O=C(CN1CCCN(Cc2ccc(Cl)cc2)S1(=O)=O)Nc1ccccc1F | inactive
30 | O=C(NCc1ccc(F)cc1)Nc1cccc(Cl)c1 | inconclusive: 23.9 µM [inhibitor, partial curve]
31 | COc1ccccc1CNc1ccc(-c2nc(C)no2)cc1[N+](=O)[O-] | active: 13.5 µM
32 | Cc1ccc(C(=O)Nc2cccnc2)cc1S(=O)(=O)N1CCCCCC1 | inconclusive: 37.9 µM [inhibitor, single point]
33 | Cc1cccc(C)c1NC(=O)N1CC=CCC1 | inactive
34 | Cc1cc(C)cc(NC(=O)C(=O)NCCCN2CCCC2=O)c1 | inconclusive: 13.5 µM [inhibitor, partial curve]
35 | CCCc1c(C)nn(C(=O)/C(C#N)=N/Nc2ccccc2[N+](=O)[O-])c1C | inconclusive: 23.9 µM [inhibitor, partial curve]
36 | S=C(Nc1ccc(Cl)cc1)NC1CCCCC1 | active: 15.1 µM
37 | CCc1ccc(N2C(=O)CN(Cc3sccc3C)C2=S)cc1 | inconclusive: 15.1 µM [inhibitor, partial curve]
38 | C=CCN1C(=O)c2ccc(C(=O)N(CC(C)C)c3c(N)n(CCCC)c(=O)[nH]c3=O)cc2C1=O | inactive
39 | Cc1nc(SCc2ccc(OCCC(C)C)cc2)n[nH]1 | active: 21.3 µM
40 | CN(C)C(CNC(=O)c1coc2ccccc2c1=O)c1ccccc1 (stereo not drawn) | inactive
41 | COc1nc(-c2ccc(C)cc2)ccc1-c1noc(-c2ccccc2Br)n1 | inconclusive: 2.69 µM [inhibitor, partial curve, poor fit]
42 | COC(=O)c1ccc(Nc2nnc(-c3ccc(C)c(S(=O)(=O)NCC4CCCO4)c3)c3ccccc23)cc1 (stereo not drawn) | inconclusive: 13.5 µM [inhibitor, partial curve]
43 | Cc1cccc(OCc2n[nH]c(=S)n2-c2ccccc2)c1 | inconclusive: 26.9 µM [inhibitor, single point]
44 | COc1cc(OC)c(NC(=O)CCCn2nc(C)c3sc4ccccc4c3c2=O)cc1Cl | active: 13.5 µM
45 | C/C(=N\NC(=O)c1ccc(N(C)C)cc1)c1ccc(C)cc1C | inconclusive: 26.9 µM [inhibitor, single point]
46 | COC(=O)c1ccc(COc2ccccc2/C=C(\C#N)C(=O)Nc2ccc(C)cc2)cc1 | active: 8.49 µM
47 | Cc1c(CC(=O)O)c(=O)oc2cc(OCc3ccc(F)cc3F)ccc12 | active: 16.9 µM
48 | Cc1ccc(NC(=O)C2=C(O)c3ccccc3N(C)S2(=O)=O)cc1 | active: 15.1 µM
49 | Cc1ccc(C)c(N2CCN(C(=O)CN3CCSc4ccc(S(=O)(=O)N(C)C)cc43)CC2)c1 | inactive
50 | O=c1c2cccnc2n(Cc2ccccc2F)c(=O)n1Cc1ccccc1Cl | inactive

Row | SMILES | Potency
51 | CCn1c(C)cc(C(=O)CSc2nnnn2C2CCCC2)c1C | active: 1.9 µM
52 | COc1ccc(C2(C)NC(=O)N(CC(=O)NC3CCCC3)C2=O)cc1OC (stereo not drawn) | inactive
53 | CC(C)C(=O)NCCc1nc2ccccc2n1CCCOc1ccc(Cl)cc1 | inconclusive: 26.9 µM [inhibitor, partial curve, poor fit]
54 | CCOC(=O)Cc1csc(/N=C/c2c(O)n(-c3ccc(C)cc3C)c(=O)c3ccccc23)n1 | inconclusive: 37.9 µM [inhibitor, partial curve, poor fit]
55 | O=C(CN1CCN(CC(=O)Nc2ccc(-c3ccccc3)cc2)CC1)Nc1ccc(F)cc1 | inactive
56 | O=C(c1cc(-c2ccco2)on1)N1CCOCC1 | inconclusive: 37.9 µM [inhibitor, partial curve, poor fit]
57 | CCOc1ccc2oc(C(=O)NNC(=O)c3ccccc3O)c(C)c2c1 | active: 10.7 µM
58 | COc1cccc(-c2noc(C3CCCN(C(=O)c4ccc(F)cc4)C3)n2)c1 (stereo not drawn) | inconclusive: 19 µM [inhibitor, partial curve]
59 | C=CCn1c(SCC(=O)O)nnc1-c1ccc(C(C)(C)C)cc1 | active: 16.9 µM
60 | Cc1cc(NCCCN2CCOCC2)n2nc(C)c(-c3ccccc3)c2n1 | inactive
61 | O=C(Nc1ccc(Br)cc1)Nc1cnccn1 | inconclusive: 23.9 µM [inhibitor, single point]
62 | CCN1CCN(c2cc(C)c3cc(NC(=S)N4CCCC(C)C4)ccc3n2)CC1 (stereo not drawn) | inconclusive: 23.9 µM [inhibitor, single point]
63 | COc1cccc(/C=N/n2c(=O)[nH]c3ccccc32)c1OC | active: 9.53 µM
64 | CCc1cc2c(-c3ccccc3)cc(=O)oc2cc1OCC(=O)NCC1CCC(C(=O)O)CC1 (stereo not drawn) | inconclusive: 26.9 µM [inhibitor, single point]
65 | O=C(CSc1ncn[nH]1)Nc1ccc(OCc2ccccc2)cc1 | active: 16.9 µM
66 | COc1ccccc1CNC(=O)CN(C)S(=O)(=O)c1ccc(Br)s1 | inactive
67 | COc1cc(/C=N/Nc2nc(C)cc(=O)[nH]2)ccc1O | inconclusive: 26.9 µM [inhibitor, single point]
68 | COc1ccc(NC(=O)Nc2ccon2)c(OC)c1 | inconclusive: 37.9 µM [inhibitor, partial curve, poor fit]
69 | Cc1ccc(NCCC(=O)c2cccc([N+](=O)[O-])c2)cc1 | inconclusive: 23.9 µM [inhibitor, partial curve, poor fit]
70 | CC(=O)Nc1ccc(NC(=O)Nc2ccccc2)cc1 | active: 16.9 µM
71 | Cc1cc(C(F)(F)F)c(C#N)c(SCC(=O)Nc2nc3ccccc3s2)n1 | active: 1.2 µM
72 | COc1ccc(/C(C)=N\NC(=O)c2ccc3c(c2)OCO3)cc1OC | inconclusive: 37.9 µM [inhibitor, partial curve, poor fit]
73 | Fc1ccc(-c2nnn(Cc3nc4ccccc4s3)n2)cc1 | inconclusive: 30.1 µM [inhibitor, single point]
